Test results taken from ChEMBL document CHEMBL4888484, “Replenishing the malaria drug discovery pipeline: Screening and hit evaluation of the MMV Hit Generation Library 1 (HGL1) against asexual blood stage Plasmodium falciparum ,using a nano luciferase reporter read-out” (2022).
The campaign covered roughly 150,000 compounds. About 540 (0.36%) showed an effect of 50% or more. Some of the results follow.

System: Plasmodium falciparum
Test: Primary screen in NF54 nanoGlo assay, in single point, at 2uM, 72h; a lower Z score goes with more inhibition
Format: functional, Erythrocyte
Settings: timepoint 72 hour

Point of comparison: `CCc1nc(NC(=O)C2CCCCC2)sc1-c1nc(-c2ccccc2)no1`, “% Inhibition” value -10%. Against it:
- C[C@H]1CCCN(C(=O)c2nscc2Br)CC1 — lower, -13%
- O=C(CC1CC(c2ccccc2)C1)NCc1nc(C(F)(F)F)n[nH]1 (stereo unspecified) — the same, -10%
- COCc1nc(COc2cccc(F)c2)nn1CC(C)(C)O — higher, -8%
- CC[C@H](NCCn1ccnc1)c1nccs1 — the same, -10%
- Cc1cc(C(=O)N(C)C[C@H]2CC(=O)N(C(C)(C)C)C2)cc(C)n1 — higher, -4%
- CN(C)c1cc(N(C)C[C@H]2CC(=O)N(C(C)(C)C)C2)ncn1 — higher, -9%
- COc1ccc(S(=O)(=O)N(Cc2cc(OC)c(OCCC3CCCN3C)c(OC)c2)[C@H]2CCCCNC2=O)cc1 (stereo partly specified) — higher, -9%
- Cc1cnc(C2CCN(C(=O)c3cc4ccccc4s3)CC2)s1 — higher, 26%
- CN(C[C@H]1COc2ccccc2O1)C(=O)c1cc2c([nH]c1=O)CCCC2=O — higher, -5%
- CC(C)c1nsc(NCC2(n3cccn3)CC2)n1 — lower, -11%
- COc1ccc(-c2noc3nc(C4CC4)cc(C(=O)N[C@@H](C)CN4CCOCC4)c23)cc1 — higher, 9%
- CC1CN(S(=O)(=O)N2CCOC(C(C)C)C2)CC(C)O1 (stereo unspecified) — higher, -9%
- O=C(Cc1c(Cl)cccc1Cl)N1CCCCCCC1 — lower, -14%
- O=C(COc1ccc(Cc2ncc(C(F)(F)F)cc2Cl)cc1)c1ccc(F)cc1 — lower, -16%
- CCCCN(CC(=O)N(Cc1ccco1)C[C@H]1CCCO1)C(=O)C1CCCC1 — higher, -2%
- Cc1cc(NC(=O)Cn2nc(-n3ccc4ccccc43)ccc2=O)on1 — higher, -4%
- Cc1occc1C(=O)N1CC[C@H](N(CCN2CCCCC2)C(=O)N(C)C)C1 — higher, -6%
- CC(C)(O)C1CN(C(=O)c2nn(-c3cccc(F)c3F)c3c2CCC3)C1 — higher, 0%
- Cc1nc(C2(C)CCN(S(=O)(=O)c3ccc(Cl)cc3C)CC2)no1 — higher, 0%
- O=C(Cc1nnc(-c2ccc3ncccc3c2)o1)NCc1ccc(Cl)cc1 — the same, -10%
- COCC1(NC(=O)CN2CCCCCC2)CCCC1 — higher, -6%
- COC(=O)C(C)CC(=O)NC1CCCCC1C(F)(F)F (stereo unspecified) — higher, -4%
- CC(=O)Oc1c(-c2ccc(NC(=O)C(C)C)cc2)c(C2CC2)nn1-c1ccc(C)cc1 — higher, -1%
- CN(C)CCN1C(=O)N[C@@](CCc2ccccc2)(C2CCN(C(=O)c3ccccc3F)CC2)C1=O — higher, 0%
- COc1ccc2[nH]c3c(=O)n(-c4ccccc4OC)c(O)nc3c2c1 — higher, 4%
- CCn1c(-c2nccn2-c2ccc3[nH]nnc3c2)nc2ccccc21 — higher, -7%
- C[C@@H](CNc1ncc(F)c(-c2ccsc2)n1)S(N)(=O)=O — higher, 25%
- O=C(NCc1ccnc(N2CCCC2=O)c1)c1ccco1 — higher, -3%
- O=C(Cc1c(F)cccc1Cl)Nc1nc(-c2ccc3c(c2)OCO3)cs1 — higher, -1%
- COCCCc1nc(-c2ccc3c(c2)CCCC(=O)N3)cs1 — higher, 10%
- O=C(Nc1nc2ccccn2n1)[C@H]1C2CCC(CC2)[C@@H]1C(F)(F)F — lower, -11%
- Cc1nc(CCN2CCCCCC2=O)n(-c2ccc(Cl)cc2)n1 — lower, -13%
- CCOC(=O)N1CCN(C(=O)Cc2c(C)nn(-c3nc(C)c(C)s3)c2O)CC1 — higher, 4%
- Oc1nc(-c2cccnc2)sc1-c1ccccc1 — higher, -2%
- Cc1c(NC(=O)NC23CC2COC3(C)C)cccc1-c1ncco1 (stereo unspecified) — higher, 13%
- CC(NC(Cc1ccccc1)C(=O)N1CCCCC1)c1cccnc1 (stereo unspecified) — lower, -31%
- C[C@H](CCC(=O)NCCS(=O)(=O)O)[C@H]1CC[C@H]2[C@@H]3CC[C@@H]4C[C@H](O)CCC4(C)[C@H]3C[C@H](O)C12C (stereo partly specified) — lower, -16%
- CCN(C(=O)c1ccc(-c2ccc(O)c(CO)c2)cc1)C1CCOCC1 — higher, -2%
- CS(=O)(=O)N1CCC(C(=O)OCc2cccc3cccnc23)CC1 — higher, -9%
- CCc1nnc(-c2ccc(=O)n(CC(=O)N3CCN(c4cccc(Cl)c4)CC3)c2)o1 — higher, 4%
- CN(CCOc1ccccc1)c1ccccc1 — higher, -7%
- CN(C)c1ccc(-c2nc(C3CCCC3)n[nH]2)cn1 — lower, -17%
- Cc1cccc(NC(=O)CNC(=O)C2CCCCC2)n1 — higher, -9%
- CN1C[C@@H](c2nc(-c3ccc(C(F)(F)F)cc3F)no2)CC1=O — higher, -8%
- O=C(NCCc1ccccc1)C(=O)Nc1ccc(N2CCCS2(=O)=O)cc1 — the same, -10%
- CC(C)Oc1cncc(S(=O)(=O)N(C)c2ccn(C)n2)c1 — lower, -18%
- CCc1oc(C(=O)N2CCC(c3nc(C)n[nH]3)CC2)cc1CN(CC)CC — lower, -16%
- Cc1ccc2c(c1)N[C@H](C(=O)N1CCN(c3cccc(C(F)(F)F)c3)CC1)NS2(=O)=O — higher, -5%
- COc1ccc([C@H]2C[C@@H](O)[C@@H](O)[C@@H]2NC(=O)c2ccccc2)cc1 — higher, 8%
- O=C(c1nc(=O)[nH]c2ccccc12)N1CCNC(=O)C12CCCC2 — higher, -7%
- COc1ncccc1N(C)C(=O)c1cncc(N2CCOCC2)c1 — the same, -10%
- O=C(NC(=O)c1ccc(C(F)(F)F)cc1)Nc1nc(-c2cccs2)cc(C(F)(F)F)n1 — higher, -9%

Point of comparison: `O=C(CC1CC(c2ccccc2)C1)NCc1nc(C(F)(F)F)n[nH]1` (stereo unspecified), Z score 1.03. Against it:
- C[C@H]1CCCN(C(=O)c2nscc2Br)CC1 — higher, 1.31
- COCc1nc(COc2cccc(F)c2)nn1CC(C)(C)O — higher, 1.04
- CC[C@H](NCCn1ccnc1)c1nccs1 — higher, 1.32
- Cc1cc(C(=O)N(C)C[C@H]2CC(=O)N(C(C)(C)C)C2)cc(C)n1 — lower, 0.55
- CN(C)c1cc(N(C)C[C@H]2CC(=O)N(C(C)(C)C)C2)ncn1 — higher, 1.63
- COc1ccc(S(=O)(=O)N(Cc2cc(OC)c(OCCC3CCCN3C)c(OC)c2)[C@H]2CCCCNC2=O)cc1 (stereo partly specified) — higher, 1.15
- Cc1cnc(C2CCN(C(=O)c3cc4ccccc4s3)CC2)s1 — lower, -2.96
- CN(C[C@H]1COc2ccccc2O1)C(=O)c1cc2c([nH]c1=O)CCCC2=O — lower, 1.02
- CC(C)c1nsc(NCC2(n3cccn3)CC2)n1 — higher, 1.27
- COc1ccc(-c2noc3nc(C4CC4)cc(C(=O)N[C@@H](C)CN4CCOCC4)c23)cc1 — lower, -1.43
- CC1CN(S(=O)(=O)N2CCOC(C(C)C)C2)CC(C)O1 (stereo unspecified) — higher, 1.35
- O=C(Cc1c(Cl)cccc1Cl)N1CCCCCCC1 — higher, 1.45
- O=C(COc1ccc(Cc2ncc(C(F)(F)F)cc2Cl)cc1)c1ccc(F)cc1 — higher, 2.3
- CCCCN(CC(=O)N(Cc1ccco1)C[C@H]1CCCO1)C(=O)C1CCCC1 — lower, 0.42
- Cc1cc(NC(=O)Cn2nc(-n3ccc4ccccc43)ccc2=O)on1 — lower, 0.88
- Cc1occc1C(=O)N1CC[C@H](N(CCN2CCCCC2)C(=O)N(C)C)C1 — lower, 0.77
- CC(C)(O)C1CN(C(=O)c2nn(-c3cccc(F)c3F)c3c2CCC3)C1 — lower, 0.06
- Cc1nc(C2(C)CCN(S(=O)(=O)c3ccc(Cl)cc3C)CC2)no1 — lower, -0.03
- O=C(Cc1nnc(-c2ccc3ncccc3c2)o1)NCc1ccc(Cl)cc1 — higher, 1.04
- COCC1(NC(=O)CN2CCCCCC2)CCCC1 — higher, 1.13
- COC(=O)C(C)CC(=O)NC1CCCCC1C(F)(F)F (stereo unspecified) — lower, 0.49
- CC(=O)Oc1c(-c2ccc(NC(=O)C(C)C)cc2)c(C2CC2)nn1-c1ccc(C)cc1 — lower, 0.18
- CN(C)CCN1C(=O)N[C@@](CCc2ccccc2)(C2CCN(C(=O)c3ccccc3F)CC2)C1=O — lower, -0.02
- COc1ccc2[nH]c3c(=O)n(-c4ccccc4OC)c(O)nc3c2c1 — lower, -0.71
- CCn1c(-c2nccn2-c2ccc3[nH]nnc3c2)nc2ccccc21 — lower, 0.98
- C[C@@H](CNc1ncc(F)c(-c2ccsc2)n1)S(N)(=O)=O — lower, -3.15
- O=C(NCc1ccnc(N2CCCC2=O)c1)c1ccco1 — lower, 0.47
- O=C(Cc1c(F)cccc1Cl)Nc1nc(-c2ccc3c(c2)OCO3)cs1 — lower, 0.07
- COCCCc1nc(-c2ccc3c(c2)CCCC(=O)N3)cs1 — lower, -1.27
- O=C(Nc1nc2ccccn2n1)[C@H]1C2CCC(CC2)[C@@H]1C(F)(F)F — higher, 1.66
- Cc1nc(CCN2CCCCCC2=O)n(-c2ccc(Cl)cc2)n1 — higher, 1.68
- CCOC(=O)N1CCN(C(=O)Cc2c(C)nn(-c3nc(C)c(C)s3)c2O)CC1 — lower, -0.52
- Oc1nc(-c2cccnc2)sc1-c1ccccc1 — lower, 0.32
- Cc1c(NC(=O)NC23CC2COC3(C)C)cccc1-c1ncco1 (stereo unspecified) — lower, -1.57
- CCc1nc(NC(=O)C2CCCCC2)sc1-c1nc(-c2ccccc2)no1 — higher, 1.43
- CC(NC(Cc1ccccc1)C(=O)N1CCCCC1)c1cccnc1 (stereo unspecified) — higher, 3.68
- C[C@H](CCC(=O)NCCS(=O)(=O)O)[C@H]1CC[C@H]2[C@@H]3CC[C@@H]4C[C@H](O)CCC4(C)[C@H]3C[C@H](O)C12C (stereo partly specified) — higher, 1.43
- CCN(C(=O)c1ccc(-c2ccc(O)c(CO)c2)cc1)C1CCOCC1 — lower, 0.37
- CS(=O)(=O)N1CCC(C(=O)OCc2cccc3cccnc23)CC1 — higher, 1.68
- CCc1nnc(-c2ccc(=O)n(CC(=O)N3CCN(c4cccc(Cl)c4)CC3)c2)o1 — lower, -0.62
- CN(CCOc1ccccc1)c1ccccc1 — lower, 0.66
- CN(C)c1ccc(-c2nc(C3CCCC3)n[nH]2)cn1 — higher, 2.29
- Cc1cccc(NC(=O)CNC(=O)C2CCCCC2)n1 — higher, 1.28
- CN1C[C@@H](c2nc(-c3ccc(C(F)(F)F)cc3F)no2)CC1=O — higher, 1.3
- O=C(NCCc1ccccc1)C(=O)Nc1ccc(N2CCCS2(=O)=O)cc1 — higher, 2.02
- CC(C)Oc1cncc(S(=O)(=O)N(C)c2ccn(C)n2)c1 — higher, 2.02
- CCc1oc(C(=O)N2CCC(c3nc(C)n[nH]3)CC2)cc1CN(CC)CC — higher, 1.76
- Cc1ccc2c(c1)N[C@H](C(=O)N1CCN(c3cccc(C(F)(F)F)c3)CC1)NS2(=O)=O — lower, 0.57
- COc1ccc([C@H]2C[C@@H](O)[C@@H](O)[C@@H]2NC(=O)c2ccccc2)cc1 — lower, -1.21
- O=C(c1nc(=O)[nH]c2ccccc12)N1CCNC(=O)C12CCCC2 — higher, 1.35
- COc1ncccc1N(C)C(=O)c1cncc(N2CCOCC2)c1 — higher, 1.74
- O=C(NC(=O)c1ccc(C(F)(F)F)cc1)Nc1nc(-c2cccs2)cc(C(F)(F)F)n1 — higher, 1.2
